Source: PubChem BioAssay AID624417 (National Center for Advancing Translational Sciences (NCATS), 2012)
Among all 410,000 compounds or so, about 6,400 (1.6%) were called active. The inconclusive results got no clear call from the source; some entries with a clear call stand among them for comparison. Calls come from the whole dose curve; as a rule, active = well fitted inhibition curve with a large enough effect; inconclusive = small, poorly fitted or top-dose-only effect; inactive = no such curve, though single readings can be large or run the other way. A potency beside an inconclusive call is a rough fit, not a confirmed value.

biological target: Glucagon-like peptide 1 receptor (Homo sapiens) (UniProt P43220); test: qHTS of GLP-1 Receptor Inverse Agonists (Inhibition Mode); details: HEK293 GLP-1R CRE-luciferase, luminescence, 24 h, GLP-1R form is constitutively active; activity change, negative = inhibition: at 38.3 µM (top of the series) unless noted; note: nearly all actives have a fitted effect of over 55% in size
Sequence of UniProt P43220 (P43220 whole entry, looked up): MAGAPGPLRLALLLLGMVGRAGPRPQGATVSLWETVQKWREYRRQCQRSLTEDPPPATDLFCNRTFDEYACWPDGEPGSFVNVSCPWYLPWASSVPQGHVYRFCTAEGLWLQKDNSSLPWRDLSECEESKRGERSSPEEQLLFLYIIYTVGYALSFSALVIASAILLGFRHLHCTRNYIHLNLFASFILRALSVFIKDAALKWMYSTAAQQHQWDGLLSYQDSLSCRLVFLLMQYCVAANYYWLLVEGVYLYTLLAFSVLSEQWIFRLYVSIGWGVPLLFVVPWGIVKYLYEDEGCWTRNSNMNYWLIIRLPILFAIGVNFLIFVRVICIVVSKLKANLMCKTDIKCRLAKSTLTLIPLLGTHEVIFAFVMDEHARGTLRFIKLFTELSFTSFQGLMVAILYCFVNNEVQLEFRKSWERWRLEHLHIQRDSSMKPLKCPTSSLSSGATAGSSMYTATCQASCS
Method in brief: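 Luminescence readout: a drop in cAMP-driven luciferase signal flags inverse agonism at a constitutively active GLP-1R stably expressed in HEK293. Compound exposure lasted 24 hr at 37 deg C, 5% CO2.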
% is set by controls: 0 for no effect and ±100 for the full control effect; potency is the fitted concentration of half-maximal effect; tags give direction and shape of the fitted curve.

Potency, inconclusive:
Cc1ccc2nc3c(cc(C(=O)NCCc4ccccc4)c(=N)n3CCCN3CCOCC3)c(=O)n2c1 7.94 µM [inhibitor, partial curve, poor fit]
Cc1ccc2c(c1)CCCN2C(=O)CCc1nc2ccccc2c(=O)[nH]1 1.41 µM [inhibitor, full curve, poor fit]
O=C(NCc1ccccc1)c1onc(CSc2ccc(Cl)cc2)c1C(=O)NCc1ccccc1 11.2 µM [inhibitor, single point]
CC(C)c1ccc(NC2CCCN(C(=O)c3ccnc(Cl)c3)C2)cc1 (stereo not drawn) 11.2 µM [inhibitor, single point]
CCn1c(SCc2ccccc2Cl)nc2ccccc21 11.2 µM [inhibitor, single point]
CC(C)(C)NC(=O)C(CCc1ccccc1)n1c(=O)c(-c2cc3ccccc3[nH]2)nc2ccccc21 (stereo not drawn) 8.91 µM [inhibitor, partial curve, poor fit]
Cc1nc([N+](=O)[O-])c(Br)n1CC(=O)c1ccc2ccccc2c1 12.6 µM [inhibitor, partial curve, poor fit]
CCN(CC)C(=O)[C@H]1CC(CC(=O)NCc2cccc(C(F)(F)F)c2)C(=O)N2CCc3c([nH]c4ccc(OC)cc34)[C@]12C (stereo partly drawn) 10 µM [inhibitor, partial curve, poor fit]
O=C(CCSc1ccccc1)N1CCN(c2ccccc2)CC1 31.6 µM [inhibitor, single point]
COc1ccc(NC(=O)Nc2ccc(F)c(Cl)c2)cc1 28.2 µM [inhibitor, single point]
Cc1nc(C(C)NC(=O)c2cc(COc3ccc(F)c(F)c3)on2)cs1 (stereo not drawn) 10 µM [inhibitor, partial curve, poor fit]
CCc1ccc(OC(C)c2nc(-c3ccc(-n4cccc4)cc3)no2)cc1 (stereo not drawn) 11.2 µM [inhibitor, single point]
Cc1cc(C)c(C(=O)COC(=O)c2ccc(NC(=O)CC#N)cc2)cc1C 11.2 µM [inhibitor, single point]
CCOC(=O)N1CCN(CC(=O)N2c3ccccc3Sc3ccccc32)CC1 28.2 µM [inhibitor, single point]
COc1cccc(NC(=O)CSc2nc3ccc(NC(=O)c4cccs4)cc3s2)c1 11.2 µM [inhibitor, single point]
CC1(C)Cc2nc3sc4c(SCC(=O)O)ncnc4c3cc2CO1 10 µM [inhibitor, partial curve]
Cc1ccc(C(=O)CC2(O)C(=O)N(Cc3ccccc3F)c3ccccc32)cc1 (stereo not drawn) 28.2 µM [inhibitor, single point]
Oc1ccc(CNc2ccc(F)cc2)c2cccnc12 4.47 µM [inhibitor, partial curve, poor fit]
N#Cc1nc(-c2cccs2)oc1NCCc1ccccc1 28.2 µM [inhibitor, single point]
CCOc1ccc(-n2c(C)c(C(C)=O)c3cc(OC(C)=O)ccc32)cc1 1 µM [inhibitor, full curve, poor fit]
CC(=O)Nc1ccc(NC(=O)c2ccc(NS(=O)(=O)c3cc(C(C)(C)C)cc(C)c3C)cc2)cc1 8.91 µM [inhibitor, partial curve, poor fit]
O=C1NC(=S)SC1=Cc1cccs1 1 µM [inhibitor, full curve]
O=C(NC1CCCCCC1)c1ccc(OCC2CCCO2)cc1 (stereo not drawn) 28.2 µM [inhibitor, single point]
CC1=C(C(=O)OC(C)C)C(c2cccs2)C(C(=O)OC(C)C)=C(C)N1 11.2 µM [inhibitor, partial curve, poor fit]
CCN(CC)CCOC(=O)c1ccc(NC(=O)C2(c3ccccc3)CCCC2)cc1 1.26 µM [inhibitor, full curve, poor fit]
O=C(N/N=C\c1ccc(Cl)cc1Cl)c1sccc1-n1cccc1 28.2 µM [inhibitor, single point]
CCN(CC)S(=O)(=O)c1ccc(NC(=O)CSc2ncnc3ccccc23)cc1 11.2 µM [inhibitor, single point]
CCOc1ccccc1NC(=O)NCc1ccccc1F 31.6 µM [inhibitor, partial curve, poor fit]
CC1(C(=O)OCC(=O)c2c[nH]c3ccccc23)CC1(Cl)Cl (stereo not drawn) 14.1 µM [inhibitor, single point]
O=S(=O)(NC1CC2CCC1C2)c1ccc(Cl)cc1 (stereo not drawn) 11.2 µM [inhibitor, partial curve]
Cc1oc2ccc(O)c(CN(C)Cc3ccccc3)c2c1C(=O)Nc1ccccc1 28.2 µM [inhibitor, single point]
CCN(CC)CC#CCOC(=O)C(O)(c1ccccc1)C1CCCCC1 (stereo not drawn) 11.2 µM [inhibitor, partial curve, poor fit]
COc1ccccc1N(CC(=O)NCCSCc1ccc(C)cc1)S(=O)(=O)c1ccccc1 14.1 µM [inhibitor, single point]
CCOC(=O)C1CCN(C(=O)c2ccccc2)c2scc(-c3ccccc3)c2C1=O (stereo not drawn) 11.2 µM [inhibitor, partial curve, poor fit]
C/C(CC(=O)Nc1c(C)cc(C)cc1C)=N\NC(=O)Cc1ccccc1 12.6 µM [inhibitor, partial curve, poor fit]
O=C(CCNC(=O)c1ccc(Br)cc1)Nc1ccccc1N1CCCC1 11.2 µM [inhibitor, single point]
Cc1cc(Br)ccc1NC(=O)CN(C)Cc1cccs1 14.1 µM [inhibitor, single point]
CN(C)CCCNc1oc(-c2ccccc2Cl)nc1S(=O)(=O)c1ccccc1 10 µM [inhibitor, single point]
CCC[C@H]1CN(c2ccccc2)C(=O)[C@@H]1CC(=O)Nc1ccc(Br)cc1 28.2 µM [inhibitor, single point]
O=C(CSc1ccccc1Cl)NC1CCCc2ccccc21 (stereo not drawn) 11.2 µM [inhibitor, single point]
CCOC(=O)c1cc(-c2ccccc2)n(CC(=O)N(C)c2ccc(OC)cc2)c1C 22.4 µM [inhibitor, single point]
O=C(O)c1cccc(NC(=S)NC(=O)c2ccc3ccccc3c2)c1 14.1 µM [inhibitor, single point]
O=C(Nc1ccc2c(c1)OCO2)C1Cc2ccccc2CN1S(=O)(=O)c1cccs1 (stereo not drawn) 4.47 µM [inhibitor, partial curve, poor fit]
CCOC(=O)c1ccc(S(=O)(=O)NCC(c2ccc(N(C)C)cc2)c2c[nH]c3ccccc23)cc1 (stereo not drawn) 14.1 µM [inhibitor, partial curve, poor fit]
N#Cc1ccc(NC(=O)Nc2cccc(C#N)c2)cc1 14.1 µM [inhibitor, single point]
COc1ccc(C)cc1Nc1nc(-c2cccc(Cl)c2)c2c(n1)-c1ccccc1OC2 11.2 µM [inhibitor, single point]
CCC1(CC)Cc2ccccc2-c2nc(NCCO)[nH]c(=O)c21 28.2 µM [inhibitor, single point]
Cc1cccc(CC2SC(N3CCN(c4ccccc4)CC3)=NC2=O)c1 (stereo not drawn) 31.6 µM [inhibitor, single point]

Activity change, negative = inhibition, inactive:
COc1ccccc1CCC(=O)OCC(=O)NCc1ccc(OC)c(OC)c1 6.19%
Cc1ccnc(SCC(=O)c2cccc([N+](=O)[O-])c2)n1 17%
O=C(O)CSc1cccc[n+]1[O-] -4.75%
COc1ccc(C2C(C#N)=C(C)NC3=C2C(=O)CC(C)(C)C3)cc1 (stereo not drawn) -5.32%
CCC(C(=O)NCc1ccccc1)n1c(C2CCN(C(C)=O)CC2)nc2ccccc21 (stereo not drawn) 19.5%
CCOC(=O)c1c(NC(=O)/C=C/c2ccc(C(C)C)cc2)sc2c1CCC2 -2.58%
Cc1ccc2nc(-c3ccc(O)cc3)oc2c1 1.57%
CN(C)CCOc1ccccc1-c1ccccc1 7.22%
CCN(c1ccccc1)c1nnc(NC(=O)Nc2ccc(Br)cc2)s1 11%
COc1ccc(-n2cc(-c3ccc(Cl)cc3)[nH]c2=S)cc1 18.5%
CN(C(=O)c1ccno1)c1nnc(-c2ccccn2)s1 46.3%
O=C(CCc1cn(Cc2ccc(F)cc2)c2ccccc12)NCCc1ccc(Cl)cc1 -5.6%
CCOC(=O)Cn1nc(C)cc1NC(=O)c1ccncc1 3.73% [at 7.66 µM]
COc1ccccc1C1(CC(=O)Nc2nccs2)CCOC(C(C)C)C1 (stereo not drawn) -17.7%
COc1ccc(/C=N/NC(=O)c2nc(-c3ccccc3)n(-c3ccccc3)n2)cc1 0%
CCCc1nc(-c2cc3ccc(C)cc3[nH]c2=O)no1 9.19%
Cc1ccc(NC(=O)CCN2C(=O)C3CCCCC3C2=O)cc1[N+](=O)[O-] (stereo not drawn) 6.61%
Cc1ccc(-c2nc(N3CCN(c4ccccc4Cl)CC3)c3ccccc3n2)cc1 1.69%
Nn1c(CN2CCCCC2)nc2ccccc2c1=O -5.12%
Nc1cc(Cl)nc(N/N=C/c2ccc([N+](=O)[O-])cc2)n1 15.1%
